Data taken from paper PMC9911399, “Two distinct binding modes provide the RNA-binding protein RbFox with extraordinary sequence specificity”.
Positions count from the first letter of the chain named. This is one part of the list.

T1: RBFOX1 RRM (Homo sapiens, UniProt Q9NWB1 109-208)
T1 sequence: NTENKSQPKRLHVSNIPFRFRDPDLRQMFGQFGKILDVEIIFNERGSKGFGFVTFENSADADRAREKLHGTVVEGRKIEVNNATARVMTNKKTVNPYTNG

B1: AUGGCCA (DNA:RNA)
RNA: GGGAGACCGGAAUUCAGAUUGUCCAUGGCCAUUAAAUCCCGUCGUAGCCACCA
DNA 1: CAATCTGAATTCCGGTCTCCC
DNA 2: TGGTGGCTACGACGGGATT
B2: AACCAGU (DNA:RNA)
RNA: B1 RNA with U26A, G27C, G28C, C29A, C30G, A31U
DNA 1: CAATCTGAATTCCGGTCTCCC
DNA 2: TGGTGGCTACGACGGGATT
B3: UGGCCUU (DNA:RNA)
RNA: B1 RNA with A25U, U26G, G28C, C30U, A31U
DNA 1: CAATCTGAATTCCGGTCTCCC
DNA 2: TGGTGGCTACGACGGGATT
B4: UCGUUGC (DNA:RNA)
RNA: B1 RNA with A25U, U26C, G28U, C29U, C30G, A31C
DNA 1: CAATCTGAATTCCGGTCTCCC
DNA 2: TGGTGGCTACGACGGGATT
B5: AUGGGUG (DNA:RNA)
RNA: B1 RNA with C29G, C30U, A31G
DNA 1: CAATCTGAATTCCGGTCTCCC
DNA 2: TGGTGGCTACGACGGGATT
B6: ACCAAGG (DNA:RNA)
RNA: B1 RNA with U26C, G27C, G28A, C29A, C30G, A31G
DNA 1: CAATCTGAATTCCGGTCTCCC
DNA 2: TGGTGGCTACGACGGGATT
B7: CAGAUGC (DNA:RNA)
RNA: B1 RNA with A25C, U26A, G28A, C29U, C30G, A31C
DNA 1: CAATCTGAATTCCGGTCTCCC
DNA 2: TGGTGGCTACGACGGGATT
B8: GGUUCGG (DNA:RNA)
RNA: B1 RNA with A25G, U26G, G27U, G28U, C30G, A31G
DNA 1: CAATCTGAATTCCGGTCTCCC
DNA 2: TGGTGGCTACGACGGGATT
B9: UUCCCGG (DNA:RNA)
RNA: B1 RNA with A25U, G27C, G28C, C30G, A31G
DNA 1: CAATCTGAATTCCGGTCTCCC
DNA 2: TGGTGGCTACGACGGGATT
B10: AAACACA (DNA:RNA)
RNA: B1 RNA with U26A, G27A, G28C, C29A
DNA 1: CAATCTGAATTCCGGTCTCCC
DNA 2: TGGTGGCTACGACGGGATT
B11: CUCUCCG (DNA:RNA)
RNA: B1 RNA with A25C, G27C, G28U, A31G
DNA 1: CAATCTGAATTCCGGTCTCCC
DNA 2: TGGTGGCTACGACGGGATT
B12: CCCUCUG (DNA:RNA)
RNA: B1 RNA with A25C, U26C, G27C, G28U, C30U, A31G
DNA 1: CAATCTGAATTCCGGTCTCCC
DNA 2: TGGTGGCTACGACGGGATT
B13: CGCACAA (DNA:RNA)
RNA: B1 RNA with A25C, U26G, G27C, G28A, C30A
DNA 1: CAATCTGAATTCCGGTCTCCC
DNA 2: TGGTGGCTACGACGGGATT
B14: ACAGUUC (DNA:RNA)
RNA: B1 RNA with U26C, G27A, C29U, C30U, A31C
DNA 1: CAATCTGAATTCCGGTCTCCC
DNA 2: TGGTGGCTACGACGGGATT
B15: CGAUACC (DNA:RNA)
RNA: B1 RNA with A25C, U26G, G27A, G28U, C29A, A31C
DNA 1: CAATCTGAATTCCGGTCTCCC
DNA 2: TGGTGGCTACGACGGGATT
B16: AUAUAUG (DNA:RNA)
RNA: B1 RNA with G27A, G28U, C29A, C30U, A31G
DNA 1: CAATCTGAATTCCGGTCTCCC
DNA 2: TGGTGGCTACGACGGGATT
B17: CCUGGGA (DNA:RNA)
RNA: B1 RNA with A25C, U26C, G27U, C29G, C30G
DNA 1: CAATCTGAATTCCGGTCTCCC
DNA 2: TGGTGGCTACGACGGGATT
B18: GUUGUGA (DNA:RNA)
RNA: B1 RNA with A25G, G27U, C29U, C30G
DNA 1: CAATCTGAATTCCGGTCTCCC
DNA 2: TGGTGGCTACGACGGGATT
B19: ACCUCUG (DNA:RNA)
RNA: B1 RNA with U26C, G27C, G28U, C30U, A31G
DNA 1: CAATCTGAATTCCGGTCTCCC
DNA 2: TGGTGGCTACGACGGGATT
B20: GAAACUC (DNA:RNA)
RNA: B1 RNA with A25G, U26A, G27A, G28A, C30U, A31C
DNA 1: CAATCTGAATTCCGGTCTCCC
DNA 2: TGGTGGCTACGACGGGATT
B21: AACUGGG (DNA:RNA)
RNA: B1 RNA with U26A, G27C, G28U, C29G, C30G, A31G
DNA 1: CAATCTGAATTCCGGTCTCCC
DNA 2: TGGTGGCTACGACGGGATT
B22: GGGCAUU (DNA:RNA)
RNA: B1 RNA with A25G, U26G, G28C, C29A, C30U, A31U
DNA 1: CAATCTGAATTCCGGTCTCCC
DNA 2: TGGTGGCTACGACGGGATT
B23: GACCACG (DNA:RNA)
RNA: B1 RNA with A25G, U26A, G27C, G28C, C29A, A31G
DNA 1: CAATCTGAATTCCGGTCTCCC
DNA 2: TGGTGGCTACGACGGGATT
B24: GCCCUCC (DNA:RNA)
RNA: B1 RNA with A25G, U26C, G27C, G28C, C29U, A31C
DNA 1: CAATCTGAATTCCGGTCTCCC
DNA 2: TGGTGGCTACGACGGGATT
B25: CGAUCCU (DNA:RNA)
RNA: B1 RNA with A25C, U26G, G27A, G28U, A31U
DNA 1: CAATCTGAATTCCGGTCTCCC
DNA 2: TGGTGGCTACGACGGGATT
B26: GCCCAAG (DNA:RNA)
RNA: GGGAGACCGGAAUUCAGAUUGUCCGCCCAAGUUAAAUCCCGUCGUAGCCACCA
DNA 1: CAATCTGAATTCCGGTCTCCC
DNA 2: TGGTGGCTACGACGGGATT
B27: ACGGACU (DNA:RNA)
RNA: B1 RNA with U26C, C29A, A31U
DNA 1: CAATCTGAATTCCGGTCTCCC
DNA 2: TGGTGGCTACGACGGGATT
B28: UUUUAGU (DNA:RNA)
RNA: B1 RNA with A25U, G27U, G28U, C29A, C30G, A31U
DNA 1: CAATCTGAATTCCGGTCTCCC
DNA 2: TGGTGGCTACGACGGGATT
B29: CGCAAGA (DNA:RNA)
RNA: B26 RNA with G25C, C26G, C28A, A30G, G31A
DNA 1: CAATCTGAATTCCGGTCTCCC
DNA 2: TGGTGGCTACGACGGGATT
B30: CUUCGGC (DNA:RNA)
RNA: B1 RNA with A25C, G27U, G28C, C29G, C30G, A31C
DNA 1: CAATCTGAATTCCGGTCTCCC
DNA 2: TGGTGGCTACGACGGGATT
B31: GUAGAGC (DNA:RNA)
RNA: B1 RNA with A25G, G27A, C29A, C30G, A31C
DNA 1: CAATCTGAATTCCGGTCTCCC
DNA 2: TGGTGGCTACGACGGGATT

molecular target: T1, RBFOX1 RRM; test: EMSA; HiTS-Eq, 1 nM pool, 10 min; buffer printed only for the single-RNA assays: 10 mM Tris pH 7.5, 150 mM NaCl, 3.4 mM EDTA, 0.001% NP-40, 30 C; conditions: tags: His6 N-terminal (pET28a); label: 5' 32P
In short: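 Relative association constants, normalised to the cognate motif, were derived by comparing read counts of each RNA species with those of the control reaction. The RNA sequenced was the free fraction, separated by 8% native PAGE after a 10 min equilibration in 50 µL of 1 nM 5′-radiolabelled RNA (7 randomized nucleotides) with increasing concentrations of purified wild-type or mutant RbFox RRM.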

Binder	binding signal
B1	0.0113 KA relative to UGCAUGU
B2	0.000945 KA relative to UGCAUGU
B3	0.0212 KA relative to UGCAUGU
B4	0.0227 KA relative to UGCAUGU
B5	0.02 KA relative to UGCAUGU
B6	0.00614 KA relative to UGCAUGU
B7	0.0101 KA relative to UGCAUGU
B8	0.0185 KA relative to UGCAUGU
B9	0.0138 KA relative to UGCAUGU
B10	0.000568 KA relative to UGCAUGU
B11	0.0057 KA relative to UGCAUGU
B12	0.0112 KA relative to UGCAUGU
B13	0.00368 KA relative to UGCAUGU
B14	0.0064 KA relative to UGCAUGU
B15	0.00853 KA relative to UGCAUGU
B16	0.00647 KA relative to UGCAUGU

Binder	binding signal
B17	0.0067 KA relative to UGCAUGU
B18	0.0176 KA relative to UGCAUGU
B19	0.0106 KA relative to UGCAUGU
B20	0.00499 KA relative to UGCAUGU
B21	0.00531 KA relative to UGCAUGU
B22	0.0157 KA relative to UGCAUGU
B23	0.00814 KA relative to UGCAUGU
B24	0.00762 KA relative to UGCAUGU
B25	0.00738 KA relative to UGCAUGU
B26	0.00844 KA relative to UGCAUGU
B27	0.00462 KA relative to UGCAUGU
B28	0.0131 KA relative to UGCAUGU
B29	0.0122 KA relative to UGCAUGU
B30	0.0141 KA relative to UGCAUGU
B31	0.0156 KA relative to UGCAUGU
